According to PubChem BioAssay AID624417 (National Center for Advancing Translational Sciences (NCATS), 2012):
Several values for one entry are separate records, joined by “and”; a condition that tells them apart may be missing. Equal values may be shown once. The whole screen tested about 410,000 compounds, of which about 6,400 (1.6%) were called active. The shares of active, inactive and inconclusive entries below differ from those in the screen. Calls follow the shape of the dose curve; as a rule, active = well fitted inhibition curve with a large enough effect; inconclusive = small, poorly fitted or top-dose-only effect; inactive = no such curve, though single readings can be large or run the other way. Potencies beside an inconclusive call are fits to weak or partial responses and may not hold up.

These molecules were tested against Glucagon-like peptide 1 receptor (Homo sapiens) (UniProt P43220) (assay: qHTS of GLP-1 Receptor Inverse Agonists (Inhibition Mode)). Conditions: HEK293 GLP-1R CRE-luciferase, luminescence, 24 h, GLP-1R form is constitutively active; series mostly up to 38.3 µM.
Outline: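 Inverse agonists were sought by their lowering of basal cAMP reporter luciferase output in HEK293 cells stably carrying constitutively active human GLP-1R, after 24 h compound treatment.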
Also: nearly all actives have a fitted effect of over 55% in size.
Potency is read from the fitted curve at half-maximal effect; tags tell the direction and shape of the fitted curve.

UniProt P43220, sequence (P43220 whole entry, looked up): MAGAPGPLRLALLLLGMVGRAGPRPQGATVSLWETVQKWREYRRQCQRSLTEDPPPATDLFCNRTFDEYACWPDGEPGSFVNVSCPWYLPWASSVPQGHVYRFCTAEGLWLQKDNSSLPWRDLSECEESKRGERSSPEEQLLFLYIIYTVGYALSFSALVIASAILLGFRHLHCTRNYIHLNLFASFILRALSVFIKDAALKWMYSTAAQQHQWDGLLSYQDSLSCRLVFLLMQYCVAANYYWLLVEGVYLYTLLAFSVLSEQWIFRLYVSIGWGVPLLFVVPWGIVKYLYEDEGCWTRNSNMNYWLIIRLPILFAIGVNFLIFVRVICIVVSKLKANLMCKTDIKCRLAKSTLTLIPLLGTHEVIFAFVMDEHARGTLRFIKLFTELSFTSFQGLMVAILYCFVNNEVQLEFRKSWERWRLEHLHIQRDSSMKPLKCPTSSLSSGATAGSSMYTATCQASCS

Potency, active:
CCCC(=O)C1=C(O)C(C(=O)OC)C(C)(C)CC1=Nc1cccc2ccccc12 (stereo not given) 7.94 µM
Cc1ccc(C)c(S(=O)(=O)/N=C(/Nc2ccccc2)c2ccccc2)c1 10 µM

Potency, inconclusive:
COc1ccccc1NC(=O)c1c(NCc2ccc(C)o2)sc2c1CCC(C)C2 (stereo not given) 28.2 µM [inhibitor, single point]
CN(Cc1ccccc1)c1cc2c(c3c1ccn3C)C1CCC2C1 (stereo not given) 12.6 µM [inhibitor, single point]
CN(c1ccccc1)S(=O)(=O)c1cccc(NC(=O)CN2CCCc3ccccc32)c1 7.94 µM [inhibitor, partial curve, poor fit]
C[C@@H]1CCCCO[C@H](CN(C)Cc2ccc3c(c2)OCO3)[C@H](C)CN([C@@H](C)CO)C(=O)c2cc(NC(=O)c3ccccc3)ccc2O1 10 µM [inhibitor, partial curve, poor fit]
COc1ccc(-n2cc3ccc([N+](=O)[O-])cc3n2)cc1 10 µM [inhibitor, single point]
CC(Oc1ccc(Cl)cc1)C(=O)NNC(=S)NC(=O)c1ccco1 (stereo not given) 31.6 µM [inhibitor, single point]
CCOc1ccc(N=C2NC(=O)S/C2=C\c2ccc(O)cc2)cc1 2.82 µM [inhibitor, partial curve]
CCOc1ccccc1NC(=O)Nc1cccc(C(C)=O)c1 28.2 µM [inhibitor, single point]
CC1=CS(=O)(=O)CC1Sc1nc2ccccc2[nH]1 (stereo not given) 0.501 µM [inhibitor, full curve, poor fit]
CCc1ccc(NC(=O)C2CCN(C(=O)N3CCOc4ccccc43)CC2)cc1 10 µM [inhibitor, partial curve, poor fit]
O=C(O)/C=C/C(=O)Nc1ccccc1SC(F)(F)F 11.2 µM [inhibitor, partial curve, poor fit]
NS(=O)(=O)c1ccc(NNC(=O)c2ccccc2)cc1 2.51 µM [inhibitor, full curve]
Cc1cccc(NC(=O)CC2SC(=NC3CCCCC3)NC2=O)c1 (stereo not given) 12.6 µM [inhibitor, partial curve, poor fit]
O=C(NNc1ccc(Cl)cc1)c1cccs1 1.12 µM [inhibitor, full curve, poor fit]
CCC(Sc1nnnn1-c1ccccc1)C(=O)Nc1nc2ccccc2s1 (stereo not given) 7.94 µM [inhibitor, partial curve, poor fit]
CCn1c(SCC(=O)OC2CCCCC2)nc2ccccc2c1=O 17.8 µM [inhibitor, single point]
COC(=O)C(C)NC(=O)C12CC3CC(C1)CC(c1ccc(C)cc1)(C3)C2 (stereo not given) 14.1 µM [inhibitor, single point]
Cc1ncc(CC(=O)n2cc(C(=O)c3cc(F)ccc3O)cn2)s1 28.2 µM [inhibitor, single point]
COCc1cccc(-c2csc(C(O)c3ccc(OC)cc3)n2)c1 (stereo not given) 11.2 µM [inhibitor, partial curve, poor fit]
COc1cccc(C=NCCCN=Cc2cccc(OC)c2O)c1O 28.2 µM [inhibitor, single point]
O=C(Cc1ccccc1)Nc1scc(-c2ccccc2)c1C(=O)N1CCOCC1 12.6 µM [inhibitor, partial curve, poor fit]
CC(C)(C)c1ccc(NC(=O)CON=C(N)c2ccccc2)cc1 12.6 µM [inhibitor, single point]
CC(OC(=O)C1=COCCO1)C(=O)Nc1ccc(Oc2ccccc2)cc1 (stereo not given) 10 µM [inhibitor, partial curve, poor fit]
O=C(NCC(=O)N1CCN(C(c2ccccc2)c2ccccc2)CC1)c1ccccc1Br 15.8 µM [inhibitor, partial curve, poor fit]
Cc1ccc(Cc2c(-c3ccco3)nc3ccc(Cl)cn23)cc1 8.91 µM [inhibitor, single point]
NC(Cc1ccc(C(F)(F)F)cc1)c1csc(Nc2ccc(C(=O)NCCCO)cn2)n1 (stereo not given) 31.6 µM [inhibitor, partial curve, poor fit]
CNCCCC1c2ccccc2C=Cc2ccccc21 12.6 µM [inhibitor, partial curve, poor fit]
O=C(Nc1ccccc1)Nc1ccc(Nc2ccccc2)cc1 2.51 µM [inhibitor, partial curve, poor fit]
COc1ccc(NC(=S)N(CCCN2CCC(C)CC2)Cc2cccs2)cc1 15.8 µM [inhibitor, partial curve, poor fit]
C=CCN(C(=O)c1cc(C)cc(C)c1)C1(C(=O)Nc2ccccc2)CCN(C(C)C)CC1 8.91 µM [inhibitor, partial curve, poor fit]
Cc1ccc(NC(=O)CCNS(=O)(=O)c2ccc(Br)s2)cc1 35.5 µM [inhibitor, partial curve, poor fit] and 8.91 µM [inhibitor, partial curve, poor fit]

Potency, inactive:
Cn1cccc1/C=C(/C#N)C(N)=S
COc1ccc(S(=O)(=O)c2c(Nc3ccc(F)cc3)sc(C(=O)c3ccc4c(c3)OCO4)c2N)cc1
COc1ccc(/C=N/NC(=O)c2ccccc2)cc1CN1CCN(c2ccc(F)cc2)CC1
C=CCSc1nnc(-c2ccc(Cl)cc2Cl)o1
CCCCN1Cc2ccccc2Oc2cc(Br)ccc2S1(=O)=O
CC1(C)C2CC=C(/C=N/NC(=S)Nc3cccnc3)C1C2 (stereo not given)
COC(=O)c1ccccc1NC(=O)c1ccccc1OC
